Screen size: about 310,000 compounds; about 2,200 (0.71%) showed an effect of 50% or more. Effects have a minus sign here. The list shows a part of the results.

In the assay the target is human ether-à-go-go-related gene (hERG) potassium channel (human, UniProt Q12809). Description: primary screen, population patch clamp on CHO cells stably expressing hERG.
Chain of human ether-à-go-go-related gene (hERG) potassium channel (Q12809 whole entry, looked up): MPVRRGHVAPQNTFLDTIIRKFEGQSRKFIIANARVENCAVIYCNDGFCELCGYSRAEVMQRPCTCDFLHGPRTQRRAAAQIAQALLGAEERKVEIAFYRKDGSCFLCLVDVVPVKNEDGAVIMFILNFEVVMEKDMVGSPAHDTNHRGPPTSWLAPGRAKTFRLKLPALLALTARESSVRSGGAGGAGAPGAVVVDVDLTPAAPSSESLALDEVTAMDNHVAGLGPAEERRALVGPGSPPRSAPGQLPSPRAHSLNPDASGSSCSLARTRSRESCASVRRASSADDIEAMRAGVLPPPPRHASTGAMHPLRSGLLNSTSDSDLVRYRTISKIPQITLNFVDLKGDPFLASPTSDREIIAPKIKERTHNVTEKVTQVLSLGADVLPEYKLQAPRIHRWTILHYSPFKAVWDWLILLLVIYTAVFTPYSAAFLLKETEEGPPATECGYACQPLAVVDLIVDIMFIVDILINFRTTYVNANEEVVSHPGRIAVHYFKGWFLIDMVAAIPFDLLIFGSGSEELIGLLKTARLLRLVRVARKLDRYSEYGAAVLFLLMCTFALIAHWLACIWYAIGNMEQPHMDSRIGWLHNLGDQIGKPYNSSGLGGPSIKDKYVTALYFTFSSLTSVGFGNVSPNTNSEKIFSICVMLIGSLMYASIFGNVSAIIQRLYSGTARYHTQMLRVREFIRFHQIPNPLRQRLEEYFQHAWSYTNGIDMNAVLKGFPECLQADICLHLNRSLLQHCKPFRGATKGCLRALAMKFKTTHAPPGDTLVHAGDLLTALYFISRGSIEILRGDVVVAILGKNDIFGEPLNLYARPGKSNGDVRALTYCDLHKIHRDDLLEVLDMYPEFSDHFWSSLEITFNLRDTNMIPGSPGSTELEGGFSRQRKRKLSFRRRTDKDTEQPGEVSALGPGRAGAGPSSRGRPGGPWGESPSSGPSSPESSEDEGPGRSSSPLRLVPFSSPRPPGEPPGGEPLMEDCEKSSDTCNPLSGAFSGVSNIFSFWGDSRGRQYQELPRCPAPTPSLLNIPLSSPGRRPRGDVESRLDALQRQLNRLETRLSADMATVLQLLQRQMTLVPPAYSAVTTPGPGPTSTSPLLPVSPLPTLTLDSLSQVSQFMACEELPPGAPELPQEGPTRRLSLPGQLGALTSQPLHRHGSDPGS
With `N#Cc1c(-c2ccccc2)nc(-c2ccccc2)nc1N1CCOCC1`, the “hERG current change (%, negative = inhibition) at 1uM” value turned out to be 17.2%.
Turning to `C[C@H]1C[C@@H]2[C@H]([C@@H](O)C[C@@]3(C)[C@H]2CC[C@]3(O)C(=O)CO)[C@@]2(C)C=CC(=O)C=C12`, the “hERG current change (%, negative = inhibition) at 1uM” value worked out at 9.59%.
Under `Cc1ccc(OCc2ccc(C(=O)Nc3ccc(S(N)(=O)=O)cc3)o2)cc1` stands 9.81%.
Consider `Cl.FC(F)(F)Oc1ccc(C2NCc3ccccc3-n3cccc32)cc1` (stereo not shown), for which the “hERG current change (%, negative = inhibition) at 1uM” value is 23.6%.
With `Cc1ccccc1OCc1nc(-c2ccccc2)no1` the figure was 14.1%.
`CCOc1ccc(NC(=O)CC(c2ccccc2)c2ccc(F)cc2)cc1` (stereo not shown): the “hERG current change (%, negative = inhibition) at 1uM” value is on record as 18.8%.
With `Cc1cc(C)c(S(=O)(=O)N2CCCCC2CCNC(=O)C(=O)NC2CC2)c(C)c1` (stereo not shown) the figure was 8.37%; with `Cc1cc(C)n2nc(SCc3cc(=O)oc4ccc5ccccc5c34)nc2n1`, 2.1%.
With `O=c1c(Cl)c(N2CCOCC2)cnn1-c1nc2ccccc2[nH]1` the figure was 21.5%; with `COc1ccc(C(=O)NC(=S)NCCc2ccccc2)cc1`, -2.75%.
Under `Cc1cccc(N=C2NC(=O)c3cc([N+](=O)[O-])ccc32)c1` stands -0.123%; under `C=CCC1(CC=C)CCCN1C(=O)c1cc(COc2ccc(F)c(F)c2)on1`, 8.91%.
Regarding `COc1ccc(NC(=O)NNC(=O)COc2ccc3cc(Br)ccc3c2)c(OC)c1`, the “hERG current change (%, negative = inhibition) at 1uM” value worked out at 11%.
On to `CNC(=O)c1ccsc1NC(=O)c1coc2ccccc2c1=O`, for which the “hERG current change (%, negative = inhibition) at 1uM” value is listed as 11.9%.
Take `Cc1cc(=O)oc2c(C(=O)c3ccccc3)c(OCC(N)=O)ccc12`: the “hERG current change (%, negative = inhibition) at 1uM” value was determined as 9.62%.
Take `Cc1ccc(CNCCCSc2nc(C)cc(C)n2)cc1.Cl`: the “hERG current change (%, negative = inhibition) at 1uM” value is given as 8.13%.
Consider `CN(C)c1ccc(NC(=O)CN2CCc3ccccc3C2)cc1`, for which the “hERG current change (%, negative = inhibition) at 1uM” value is reported as 9.35%.
Under `COc1ccc(C(C)C)cc1S(=O)(=O)Nc1ccc(Cl)cn1` stands 5.75%; under `Cc1ccc(S(=O)(=O)Oc2ccc(/C=C3/C(=N)N4C(=NC3=O)SN=C4S(C)(=O)=O)cc2)cc1`, 5.97%.
Under `CCN(CC)CCn1c2c(c(SCC(=O)Nc3ccc(F)c(F)c3)nc1=O)CCC2` stands -38.8%; under `COc1cc(/C=N/NC(=O)c2cccnc2)cc2c1OCO2`, 11.1%.
Under `CN(C)C(=O)COc1ccc2c3c(c(=O)oc2c1)CCCC3` stands 10.1%.
Consider `Cl.O=C(NCCN1CCCC1)c1ccc(Cl)cc1`, for which the “hERG current change (%, negative = inhibition) at 1uM” value came to 4.82%.
With `Cc1nnc(NC(=O)c2nc(S(=O)(=O)Cc3ccccc3C)ncc2Cl)s1` the figure was 31.2%; with `CC(C)c1ccc(NC2CCCN(C(=O)c3cnc4ccccn4c3=O)C2)cc1` (stereo not shown), 12.6%; with `COc1cccc(C(=O)Nc2cc(C)c3c(=O)oc4ccccc4c3n2)c1`, 8.13%.
In the case of `CCOc1ccc(CNn2nnnc2N)cc1`, the “hERG current change (%, negative = inhibition) at 1uM” value is reported as -0.778%.
With `CCOc1ccccc1NC(=O)c1c(Br)cnn1C` the figure was 10.9%; with `CC1(C)CC(=O)C(N=Nc2ccc3ncsc3c2)=C(O)C1`, 6.55%.
For `CCC(C)(C)NC(=O)CN(Cc1ccccc1Cl)C(=O)CCC(=O)Nc1cc(C)ccn1`, the “hERG current change (%, negative = inhibition) at 1uM” value came out at 7.62%.
As to `O=c1c2ccccc2nnn1Cc1cccc2ccccc12`, the “hERG current change (%, negative = inhibition) at 1uM” value turned out to be 7.23%.
With `CCSc1nnc(NC(=O)c2cc3c(s2)CCCC3)s1` the figure was 1.29%; with `CCOC(=O)Cn1c(=O)oc2cc(S(=O)(=O)NC3CCCCC3)ccc21`, 12.4%; with `CS(=O)(=O)N(Cc1ccc(C(=O)NCCSCc2ccco2)cc1)c1ccccc1`, -0.859%.
With `CC(c1ccccc1)n1cc(C(=O)NCC2CCCO2)nn1` (stereo not shown), the “hERG current change (%, negative = inhibition) at 1uM” value was found to be 13.6%.
For the compound `Cc1nnc(NC(=O)CSc2nnc(C)c(=O)n2N)s1`, the “hERG current change (%, negative = inhibition) at 1uM” value is recorded as 14.9%.
Regarding `Cc1onc(-c2ccccc2)c1CNC(=O)Nc1cccc(Cl)c1`, the “hERG current change (%, negative = inhibition) at 1uM” value was 8.08%.
Take `O=C(O)c1ccccc1C(=O)Nc1ccc(Br)c2cccnc12`: the “hERG current change (%, negative = inhibition) at 1uM” value was found to be 14.5%.
Under `O=C1/C(=C\Nc2ccc(Cl)cc2)CCN1c1ncccn1` stands -6.89%; under `CN1CCN(/N=C/c2nc(-c3ccccc3Cl)n3ccccc23)CC1`, 3.18%.
`c1ccc2[nH]c3cc4ncnc4cc3nc2c1`: the “hERG current change (%, negative = inhibition) at 1uM” value is recorded as 6.18%.
Under `CCOc1ccc(/C=N/NC(=S)NC2CC3CC2C2C=CCC32)cc1` (stereo not shown) stands 13%; under `O=C(c1cccc(F)c1)N1CCN(S(=O)(=O)Cc2ccccc2)CC1`, 18.7%.
With `COC(=O)/C=C1/S/C(=N/N=C/c2ccc(N(C)C)cc2)NC1=O` the figure was 13.3%.
With `CCN(CC)S(=O)(=O)c1cccc(-c2nn(-c3ccccc3)cc2/C=C(\C#N)C(=O)NCc2ccco2)c1` the figure was 7.33%; with `CC(=O)Nc1ccc(SCC(=O)N(C)C2CCS(=O)(=O)C2)cc1` (stereo not shown), 8.69%.

(Values after article PMC4336329 (PLoS ONE, 2015).)
